In patent US20260092099A1 (SPIN THERAPEUTICS, published 2026):

Biological target: T1, human neutrophil elastase (human, UniProt P08246 30-247, limits assumed)
T1 sequence (looked up): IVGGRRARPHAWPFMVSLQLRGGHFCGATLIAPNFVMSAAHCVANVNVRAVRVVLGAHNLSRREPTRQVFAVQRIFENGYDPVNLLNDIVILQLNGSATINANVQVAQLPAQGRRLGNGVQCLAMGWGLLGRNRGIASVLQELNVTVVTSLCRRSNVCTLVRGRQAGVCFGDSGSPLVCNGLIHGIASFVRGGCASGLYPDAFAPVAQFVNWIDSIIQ
Experiment: cell-based or functional assay

B1: AAT-albumin fusion, base C232S, M351V, M358L with K335A/S283C/P361C (other)
chain: EDPQGDAAQKTDTSHHDQDHPTFNKITPNLAEFAFSLYRQLAHQSNSTNIFFSPVSIATAFAMLSLGTKADTHDEILEGLNFNLTEIPEAQIHEGFQELLRTLNQPDSQLQLTTGNGLFLSEGLKLVDKFLEDVKKLYHSEAFTVNFGDTEEAKKQINDYVEKGTQGKIVDLVKELDRDTVFALVNYIFFKGKWERPFEVKDTEEEDFHVDQVTTVKVPMMKRLGMFNIQHSKKLSSWVLLMKYLGNATAIFFLPDEGKLQHLENELTHDIITKFLENEDRRCASLHLPKLSITGTYDLKSVLGQLGITKVFSNGADLSGVTEEAPLKLSKAVHAAVLTIDEKGTEAAGAVFLEAIPLSICPEVKFNKPFVFLMIEQNTKSPLFMGKVVNPTQKGGSGGSGGSGGSGG[skipping about 600 residues]
  IC50 (nM), neutrophil elastase inhibitory assay: 8.55 nM

B2: AAT-albumin fusion, base C232S, M351V, M358L with G117F/K335A (other)
chain: EDPQGDAAQKTDTSHHDQDHPTFNKITPNLAEFAFSLYRQLAHQSNSTNIFFSPVSIATAFAMLSLGTKADTHDEILEGLNFNLTEIPEAQIHEGFQELLRTLNQPDSQLQLTTGNFLFLSEGLKLVDKFLEDVKKLYHSEAFTVNFGDTEEAKKQINDYVEKGTQGKIVDLVKELDRDTVFALVNYIFFKGKWERPFEVKDTEEEDFHVDQVTTVKVPMMKRLGMFNIQHSKKLSSWVLLMKYLGNATAIFFLPDEGKLQHLENELTHDIITKFLENEDRRSASLHLPKLSITGTYDLKSVLGQLGITKVFSNGADLSGVTEEAPLKLSKAVHAAVLTIDEKGTEAAGAVFLEAIPLSIPPEVKFNKPFVFLMIEQNTKSPLFMGKVVNPTQKGGSGGSGGSGGSGG[skipping about 600 residues]
  IC50 (nM), neutrophil elastase inhibitory assay: 8.58 nM

B3: AAT-albumin fusion, base C232S, M351V, M358L with G117F/K331F (other)
chain: EDPQGDAAQKTDTSHHDQDHPTFNKITPNLAEFAFSLYRQLAHQSNSTNIFFSPVSIATAFAMLSLGTKADTHDEILEGLNFNLTEIPEAQIHEGFQELLRTLNQPDSQLQLTTGNFLFLSEGLKLVDKFLEDVKKLYHSEAFTVNFGDTEEAKKQINDYVEKGTQGKIVDLVKELDRDTVFALVNYIFFKGKWERPFEVKDTEEEDFHVDQVTTVKVPMMKRLGMFNIQHSKKLSSWVLLMKYLGNATAIFFLPDEGKLQHLENELTHDIITKFLENEDRRSASLHLPKLSITGTYDLKSVLGQLGITKVFSNGADLSGVTEEAPLKLSFAVHKAVLTIDEKGTEAAGAVFLEAIPLSIPPEVKFNKPFVFLMIEQNTKSPLFMGKVVNPTQKGGSGGSGGSGGSGG[skipping about 600 residues]
  IC50 (nM), neutrophil elastase inhibitory assay: 8.94 nM

B4: AAT-albumin fusion, base C232S, M351V, M358L with F51L/K331F (other)
chain: EDPQGDAAQKTDTSHHDQDHPTFNKITPNLAEFAFSLYRQLAHQSNSTNILFSPVSIATAFAMLSLGTKADTHDEILEGLNFNLTEIPEAQIHEGFQELLRTLNQPDSQLQLTTGNGLFLSEGLKLVDKFLEDVKKLYHSEAFTVNFGDTEEAKKQINDYVEKGTQGKIVDLVKELDRDTVFALVNYIFFKGKWERPFEVKDTEEEDFHVDQVTTVKVPMMKRLGMFNIQHSKKLSSWVLLMKYLGNATAIFFLPDEGKLQHLENELTHDIITKFLENEDRRSASLHLPKLSITGTYDLKSVLGQLGITKVFSNGADLSGVTEEAPLKLSFAVHKAVLTIDEKGTEAAGAVFLEAIPLSIPPEVKFNKPFVFLMIEQNTKSPLFMGKVVNPTQKGGSGGSGGSGGSGG[skipping about 600 residues]
  IC50 (nM), neutrophil elastase inhibitory assay: 9.18 nM

B5: AAT-albumin fusion, base C232S, M351V, M358L with K331F/K335A (other)
chain: EDPQGDAAQKTDTSHHDQDHPTFNKITPNLAEFAFSLYRQLAHQSNSTNIFFSPVSIATAFAMLSLGTKADTHDEILEGLNFNLTEIPEAQIHEGFQELLRTLNQPDSQLQLTTGNGLFLSEGLKLVDKFLEDVKKLYHSEAFTVNFGDTEEAKKQINDYVEKGTQGKIVDLVKELDRDTVFALVNYIFFKGKWERPFEVKDTEEEDFHVDQVTTVKVPMMKRLGMFNIQHSKKLSSWVLLMKYLGNATAIFFLPDEGKLQHLENELTHDIITKFLENEDRRSASLHLPKLSITGTYDLKSVLGQLGITKVFSNGADLSGVTEEAPLKLSFAVHAAVLTIDEKGTEAAGAVFLEAIPLSIPPEVKFNKPFVFLMIEQNTKSPLFMGKVVNPTQKGGSGGSGGSGGSGG[skipping about 600 residues]
  IC50 (nM), neutrophil elastase inhibitory assay: 9.3 nM

B6: AAT-albumin fusion, base C232S, M351V, M358L with G117F (other)
chain: EDPQGDAAQKTDTSHHDQDHPTFNKITPNLAEFAFSLYRQLAHQSNSTNIFFSPVSIATAFAMLSLGTKADTHDEILEGLNFNLTEIPEAQIHEGFQELLRTLNQPDSQLQLTTGNFLFLSEGLKLVDKFLEDVKKLYHSEAFTVNFGDTEEAKKQINDYVEKGTQGKIVDLVKELDRDTVFALVNYIFFKGKWERPFEVKDTEEEDFHVDQVTTVKVPMMKRLGMFNIQHSKKLSSWVLLMKYLGNATAIFFLPDEGKLQHLENELTHDIITKFLENEDRRSASLHLPKLSITGTYDLKSVLGQLGITKVFSNGADLSGVTEEAPLKLSKAVHKAVLTIDEKGTEAAGAVFLEAIPLSIPPEVKFNKPFVFLMIEQNTKSPLFMGKVVNPTQKGGSGGSGGSGGSGG[skipping about 600 residues]
  IC50 (nM), neutrophil elastase inhibitory assay: 10.4 nM

B7: AAT-albumin fusion, base C232S, M351V, M358L with F51L/K335A (other)
chain: EDPQGDAAQKTDTSHHDQDHPTFNKITPNLAEFAFSLYRQLAHQSNSTNILFSPVSIATAFAMLSLGTKADTHDEILEGLNFNLTEIPEAQIHEGFQELLRTLNQPDSQLQLTTGNGLFLSEGLKLVDKFLEDVKKLYHSEAFTVNFGDTEEAKKQINDYVEKGTQGKIVDLVKELDRDTVFALVNYIFFKGKWERPFEVKDTEEEDFHVDQVTTVKVPMMKRLGMFNIQHSKKLSSWVLLMKYLGNATAIFFLPDEGKLQHLENELTHDIITKFLENEDRRSASLHLPKLSITGTYDLKSVLGQLGITKVFSNGADLSGVTEEAPLKLSKAVHAAVLTIDEKGTEAAGAVFLEAIPLSIPPEVKFNKPFVFLMIEQNTKSPLFMGKVVNPTQKGGSGGSGGSGGSGG[skipping about 600 residues]
  IC50 (nM), neutrophil elastase inhibitory assay: 10.7 nM

B8: AAT-albumin fusion, base C232S, M351V, M358L with F51L (other)
chain: EDPQGDAAQKTDTSHHDQDHPTFNKITPNLAEFAFSLYRQLAHQSNSTNILFSPVSIATAFAMLSLGTKADTHDEILEGLNFNLTEIPEAQIHEGFQELLRTLNQPDSQLQLTTGNGLFLSEGLKLVDKFLEDVKKLYHSEAFTVNFGDTEEAKKQINDYVEKGTQGKIVDLVKELDRDTVFALVNYIFFKGKWERPFEVKDTEEEDFHVDQVTTVKVPMMKRLGMFNIQHSKKLSSWVLLMKYLGNATAIFFLPDEGKLQHLENELTHDIITKFLENEDRRSASLHLPKLSITGTYDLKSVLGQLGITKVFSNGADLSGVTEEAPLKLSKAVHKAVLTIDEKGTEAAGAVFLEAIPLSIPPEVKFNKPFVFLMIEQNTKSPLFMGKVVNPTQKGGSGGSGGSGGSGG[skipping about 600 residues]
  IC50 (nM), neutrophil elastase inhibitory assay: 13.6 nM

B9: AAT-albumin fusion, base C232S, M351V, M358L with K331F/S283C/P361C (other)
chain: EDPQGDAAQKTDTSHHDQDHPTFNKITPNLAEFAFSLYRQLAHQSNSTNIFFSPVSIATAFAMLSLGTKADTHDEILEGLNFNLTEIPEAQIHEGFQELLRTLNQPDSQLQLTTGNGLFLSEGLKLVDKFLEDVKKLYHSEAFTVNFGDTEEAKKQINDYVEKGTQGKIVDLVKELDRDTVFALVNYIFFKGKWERPFEVKDTEEEDFHVDQVTTVKVPMMKRLGMFNIQHSKKLSSWVLLMKYLGNATAIFFLPDEGKLQHLENELTHDIITKFLENEDRRCASLHLPKLSITGTYDLKSVLGQLGITKVFSNGADLSGVTEEAPLKLSFAVHKAVLTIDEKGTEAAGAVFLEAIPLSICPEVKFNKPFVFLMIEQNTKSPLFMGKVVNPTQKGGSGGSGGSGGSGG[skipping about 600 residues]
  IC50 (nM), neutrophil elastase inhibitory assay: 14.3 nM

B10: AAT-albumin fusion, base C232S, M351V, M358L with K335A/K168C/F189C (other)
chain: EDPQGDAAQKTDTSHHDQDHPTFNKITPNLAEFAFSLYRQLAHQSNSTNIFFSPVSIATAFAMLSLGTKADTHDEILEGLNFNLTEIPEAQIHEGFQELLRTLNQPDSQLQLTTGNGLFLSEGLKLVDKFLEDVKKLYHSEAFTVNFGDTEEAKKQINDYVEKGTQGCIVDLVKELDRDTVFALVNYICFKGKWERPFEVKDTEEEDFHVDQVTTVKVPMMKRLGMFNIQHSKKLSSWVLLMKYLGNATAIFFLPDEGKLQHLENELTHDIITKFLENEDRRSASLHLPKLSITGTYDLKSVLGQLGITKVFSNGADLSGVTEEAPLKLSKAVHAAVLTIDEKGTEAAGAVFLEAIPLSIPPEVKFNKPFVFLMIEQNTKSPLFMGKVVNPTQKGGSGGSGGSGGSGG[skipping about 600 residues]
  IC50 (nM), neutrophil elastase inhibitory assay: 15.8 nM

B11: AAT-albumin fusion, base C232S, M351V, M358L with F51L/S283C/P361C (other)
chain: EDPQGDAAQKTDTSHHDQDHPTFNKITPNLAEFAFSLYRQLAHQSNSTNILFSPVSIATAFAMLSLGTKADTHDEILEGLNFNLTEIPEAQIHEGFQELLRTLNQPDSQLQLTTGNGLFLSEGLKLVDKFLEDVKKLYHSEAFTVNFGDTEEAKKQINDYVEKGTQGKIVDLVKELDRDTVFALVNYIFFKGKWERPFEVKDTEEEDFHVDQVTTVKVPMMKRLGMFNIQHSKKLSSWVLLMKYLGNATAIFFLPDEGKLQHLENELTHDIITKFLENEDRRCASLHLPKLSITGTYDLKSVLGQLGITKVFSNGADLSGVTEEAPLKLSKAVHKAVLTIDEKGTEAAGAVFLEAIPLSICPEVKFNKPFVFLMIEQNTKSPLFMGKVVNPTQKGGSGGSGGSGGSGG[skipping about 600 residues]
  IC50 (nM), neutrophil elastase inhibitory assay: 16 nM

B12: AAT-albumin fusion, base C232S, M351V, M358L with F51L/G117F (other)
chain: EDPQGDAAQKTDTSHHDQDHPTFNKITPNLAEFAFSLYRQLAHQSNSTNILFSPVSIATAFAMLSLGTKADTHDEILEGLNFNLTEIPEAQIHEGFQELLRTLNQPDSQLQLTTGNFLFLSEGLKLVDKFLEDVKKLYHSEAFTVNFGDTEEAKKQINDYVEKGTQGKIVDLVKELDRDTVFALVNYIFFKGKWERPFEVKDTEEEDFHVDQVTTVKVPMMKRLGMFNIQHSKKLSSWVLLMKYLGNATAIFFLPDEGKLQHLENELTHDIITKFLENEDRRSASLHLPKLSITGTYDLKSVLGQLGITKVFSNGADLSGVTEEAPLKLSKAVHKAVLTIDEKGTEAAGAVFLEAIPLSIPPEVKFNKPFVFLMIEQNTKSPLFMGKVVNPTQKGGSGGSGGSGGSGG[skipping about 600 residues]
  IC50 (nM), neutrophil elastase inhibitory assay: 19 nM
